Reference: PubChem BioAssay AID624417 (National Center for Advancing Translational Sciences (NCATS), 2012)
“And” between values parts separate entries of the source, which are not always exact repeats. Identical values can stand only once. Screen size: about 410,000 compounds; about 6,400 (1.6%) were called active. Inconclusive results, whose numbers are uncertain, are shown with a selection of clear calls. Calls come from the whole dose curve; as a rule, active = well fitted inhibition curve with a large enough effect; inconclusive = small, poorly fitted or top-dose-only effect; inactive = no such curve, though single readings can be large or run the other way. A potency beside an inconclusive call is a rough fit, not a confirmed value.

These compounds were tested against Glucagon-like peptide 1 receptor (Homo sapiens) (UniProt P43220) (assay: qHTS of GLP-1 Receptor Inverse Agonists (Inhibition Mode)). Conditions: HEK293 GLP-1R CRE-luciferase, luminescence, 24 h, GLP-1R form is constitutively active; series mostly up to 38.3 µM.
Sequence of UniProt P43220 (P43220 whole entry, looked up): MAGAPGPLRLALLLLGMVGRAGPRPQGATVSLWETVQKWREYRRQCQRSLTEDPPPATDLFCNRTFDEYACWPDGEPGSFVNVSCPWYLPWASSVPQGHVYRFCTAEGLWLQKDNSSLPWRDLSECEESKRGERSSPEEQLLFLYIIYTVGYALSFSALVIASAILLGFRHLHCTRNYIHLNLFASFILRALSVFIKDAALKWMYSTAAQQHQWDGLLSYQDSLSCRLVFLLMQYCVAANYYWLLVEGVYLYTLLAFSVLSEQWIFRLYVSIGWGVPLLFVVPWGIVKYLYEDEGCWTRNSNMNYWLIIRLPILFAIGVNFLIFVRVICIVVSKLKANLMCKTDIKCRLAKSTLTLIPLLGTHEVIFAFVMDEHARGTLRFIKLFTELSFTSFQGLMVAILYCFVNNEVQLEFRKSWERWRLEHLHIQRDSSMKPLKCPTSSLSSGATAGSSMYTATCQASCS
Method in brief: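 Luminescence readout: a drop in cAMP-driven luciferase signal flags inverse agonism at a constitutively active GLP-1R stably expressed in HEK293. Compound exposure lasted 24 hr at 37 deg C, 5% CO2.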
Note: nearly all actives have a fitted effect of over 55% in size.
Potency is the fitted concentration of half-maximal effect; tags give direction and shape of the fitted curve.

SMILES	Potency
COc1ccc(/C=N/Nc2nncn2N)cc1Br	inconclusive: 31.6 µM [inhibitor, partial curve, poor fit]
C=CCn1c(SCC(=O)Nc2ccc3c(c2)OCO3)nnc1-c1cc(Br)ccc1O	inconclusive: 28.2 µM [inhibitor, single point]
Cc1ccc(C)c(-n2cc(CNCCc3cnccn3)c(-c3ccccc3)n2)c1	inconclusive: 10 µM [inhibitor, partial curve, poor fit]
Cc1cc(C)nc(Nc2ncc(O)n2-c2ccc(Br)cc2)n1	inactive
COc1ccccc1CNC(=O)N1CCN(c2ccccc2Cl)CC1	inconclusive: 28.2 µM [inhibitor, single point]
O=S(=O)(c1cccs1)N1CCN(c2ccccc2Cl)CC1	inconclusive: 22.4 µM [inhibitor, single point]
COC(=O)c1cc(S(=O)(=O)NCc2ccc3c(c2)OCO3)cn1C	inconclusive: 3.16 µM [inhibitor, full curve, poor fit]
O=C(Cc1ccccc1Cl)Nc1cccc(S(=O)(=O)N2CCCCCC2)c1	inconclusive: 22.4 µM [inhibitor, single point]
CCOC(=O)c1c(C)[nH]c(C(=O)N/N=C/c2cc([N+](=O)[O-])ccc2O)c1C	inconclusive: 6.31 µM [inhibitor, partial curve, poor fit]
COc1cc(/C=C2\Oc3ccc(C#Cc4ccc(O)cc4)cc3C2=O)cc(OC)c1	inconclusive: 3.98 µM [inhibitor, full curve, poor fit]
CCOC(=O)c1cccc(NC(=O)C(CC(C)C)N2Cc3ccccc3C2=O)c1 (centres undefined)	inconclusive: 10 µM [inhibitor, partial curve, poor fit]
CCOc1ccc(N(CC(=O)NC2CCCC(C)C2C)S(=O)(=O)c2c(C)noc2C)cc1 (centres undefined)	inconclusive: 11.2 µM [inhibitor, single point]
Cc1nc(-c2ccccc2)sc1C(=O)CSc1ccc(F)cc1	inconclusive: 28.2 µM [inhibitor, single point]
O=S(=O)(Nc1ccc(Cl)cc1)c1ccc(NS(=O)(=O)c2ccc3c(c2)OCCO3)cc1	inconclusive: 12.6 µM [inhibitor, single point]
COc1ccc(NC(=O)CN(C)C(=O)c2cccc(Oc3ccccc3)c2)cc1	inconclusive: 28.2 µM [inhibitor, single point]
Cc1ccc(CN(C(=O)COc2cccc([N+](=O)[O-])c2)c2ccccn2)o1	inconclusive: 22.4 µM [inhibitor, single point]
CCN1CCCC1CNC(=O)CN(C)S(=O)(=O)c1ccc(Cl)cc1 (centres undefined)	inconclusive: 8.91 µM [inhibitor, partial curve, poor fit]
O=C(NCCOC12CC3CC(CC(C3)C1)C2)c1cccc(Br)c1	inconclusive: 7.94 µM [inhibitor, single point]
CCc1ccccc1NC(=O)N1CCN(c2cc(-c3noc(C)n3)ccc2C)CC1	inactive
Cn1cccc1C(=O)OCc1csc(-c2ccccc2)n1	inconclusive: 11.2 µM [inhibitor, single point]

SMILES	Potency
CC(C)Cc1cc(C(=O)NCCc2ccccc2)no1	inconclusive: 28.2 µM [inhibitor, single point]
O=S(=O)(NCc1ccccc1)c1ccc(NC(=S)NCc2ccco2)cc1	inconclusive: 17.8 µM [inhibitor, partial curve, poor fit]
COc1cc2ccccc2cc1C(=O)Nc1cccc(-c2nc3cc(C)c(C)cc3o2)c1C	inactive
CCCCn1c(NS(=O)(=O)c2ccc(C)cc2)c(S(=O)(=O)c2ccccc2)c2nc3ccccc3nc21	inconclusive: 2.24 µM [inhibitor, full curve]
CCOC(=O)c1c(CC(C)C)csc1NC(=O)c1ccccc1C(=O)O	active: 11.2 µM
COc1ccc(C2Nc3ccccc3C(=O)N2Cc2ccco2)cc1CN1C(=O)c2ccccc2C1=O (centres undefined)	inconclusive: 8.91 µM [inhibitor, partial curve, poor fit] and inconclusive: 1.58 µM [inhibitor, full curve, poor fit]
CCN(CC(=O)Nc1ccc(Br)cc1)C(=O)Cc1cccc(F)c1	inconclusive: 10 µM [inhibitor, partial curve, poor fit]
O=C(Nc1cccc(Cl)c1Cl)c1ccc2c(c1)N(Cc1cccc(Cl)c1)C(=O)c1ccccc1S2(=O)=O	inactive
CC(C)c1ccc(NC(=O)CN2C(=O)NC3(CCCCCCC3)C2=O)cc1	inconclusive: 7.08 µM [inhibitor, partial curve, poor fit]
O=[N+]([O-])c1cc(O)c2ncccc2c1	inconclusive: 0.501 µM [inhibitor, full curve, poor fit]
COc1ccc(-c2cn3c(C)c(C(=O)N4CCN(c5ccccc5F)CC4)sc3n2)cc1	inconclusive: 28.2 µM [inhibitor, single point]
COc1cccc(-c2cccc3c2NC(=O)C3(C)Cc2cccc(F)c2)c1 (centres undefined)	inconclusive: 10 µM [inhibitor, single point]
Cc1oc(C(=O)Nc2ccc(O)cc2)cc1COc1ccccc1	inconclusive: 20 µM [inhibitor, single point]
CC(C)Cc1ccc(C(C)NC(=O)Cc2ccc(S(=O)(=O)N3CCOCC3)s2)cc1 (centres undefined)	inconclusive: 15.8 µM [inhibitor, partial curve, poor fit]
CCCN1C(=O)C2(c3ccccc31)c1c(oc3ccccc3c1=O)C(=O)N2CCO (centres undefined)	inactive
CCOC(=O)c1ccc(S(=O)(=O)N2CCN(C3CC(=O)N(c4ccc(OC)cc4)C3=O)CC2)cc1 (centres undefined)	inactive
O=C(c1ccc(Cl)c(S(=O)(=O)NCc2ccco2)c1)N1CCN(c2ccc(F)cc2)CC1	inconclusive: 28.2 µM [inhibitor, single point]
Cc1cccc(C(=O)OCC(=O)N2CCCCCC2)c1O	inconclusive: 14.1 µM [inhibitor, single point]
CC(=O)OCC(=O)N1CCN(c2ccc([N+](=O)[O-])cc2)CC1	inactive
N#Cc1ccc2[nH]c(CO)c(-c3ccccc3)c2c1	inconclusive: 28.2 µM [inhibitor, single point]

SMILES	Potency
CN(C)S(=O)(=O)c1cccc(COC(=O)Cc2c(F)cccc2Cl)c1	inconclusive: 28.2 µM [inhibitor, single point]
Cc1ccc(C)c(S(=O)(=O)N2CCN(C(=O)CCNC(=O)c3ccc(Br)cc3)CC2)c1	inconclusive: 14.1 µM [inhibitor, single point]
CCOc1ccccc1NC(=O)c1c(NCc2sccc2C)sc2c1CCCCC2	inactive
CCO[C@@H]1OC(C(=O)N2CCN(Cc3ccc4c(c3)OCO4)CC2)=C[C@H](c2ccc(C(F)(F)F)cc2)[C@H]1CCCO	inconclusive: 20 µM [inhibitor, single point]
CCCNC(=O)c1ccc(-n2c(-c3ccccc3)cc3c2CCC(C)C3)cc1 (centres undefined)	inconclusive: 12.6 µM [inhibitor, partial curve, poor fit]
O=C(Nc1ccccc1)c1cc([N+](=O)[O-])ccc1NCc1cccnc1	inconclusive: 31.6 µM [inhibitor, single point]
COc1cc2c(cc1NC(=O)/C=C/c1cc(OC)c(OC)c(OC)c1)oc1ccccc12	inconclusive: 2.24 µM [inhibitor, partial curve, poor fit]
CC1CCCC(NC(=O)CN(C)CC(=O)Nc2ccc(F)cc2)C1C (centres undefined)	inconclusive: 22.4 µM [inhibitor, single point]
COc1cccc(-c2sc3ccc(OC)cc3c2C#CC(C)(C)O)c1	inconclusive: 10 µM [inhibitor, partial curve]
COc1ccc([C@H]2C[C@@H](O)[C@H](n3cc(C4CC4)nn3)CN2CC2CCCCC2)cc1	active: 7.94 µM
COC(=O)[C@@]1(Cc2ccc(OC)cc2)[C@H]2c3cc(C(=O)N(C)C)n(Cc4ccc(OC(F)(F)F)cc4)c3C[C@H]2CN1C(=O)c1ccccc1	inconclusive: 28.2 µM [inhibitor, single point]
CCCCC[C@H]1CN(C2CCCCC2)C(=O)[C@@H]1CC(=O)NCc1ccc(OC)cc1	inconclusive: 11.2 µM [inhibitor, partial curve, poor fit]
O=C(NCC1CCCO1)C(=O)NCC(c1ccco1)N1CCN(c2ccccc2F)CC1 (centres undefined)	inconclusive: 22.4 µM [inhibitor, single point]
COc1ccc(S(=O)(=O)N2CCC(C(=O)Nc3cc(Cl)ccc3N3CCOCC3)CC2)cc1OC	inconclusive: 28.2 µM [inhibitor, single point]
CCC(=O)Oc1ccc(C(=O)Nc2cccc(C(=O)NCC(C)C)c2)cc1	inconclusive: 11.2 µM [inhibitor, single point]
NC(CSC1(c2cccc3ccccc23)c2ccccc2-c2ccccc21)C(=O)O (centres undefined)	inconclusive: 7.94 µM [inhibitor, partial curve, poor fit]
CCN(CC)CCOC(=O)c1ccc(NC(=O)c2cn(-c3ccccc3)nc2-c2cccs2)cc1	inconclusive: 11.2 µM [inhibitor, single point]
CCOC(=O)CC1(C)Oc2ccccc2N1S(=O)(=O)c1ccc(C)cc1 (centres undefined)	inconclusive: 31.6 µM [inhibitor, single point]
O=C(Nc1ccc(-n2cnnn2)cc1)C(c1ccccc1)c1ccccc1	inconclusive: 2.51 µM [inhibitor, full curve, poor fit]
